The name of at least one read-out is uncertain.
System: cyclin D1
Assay: HiBiT detection of HiBiT-tagged cyclin D1 protein level in MCF7 cells, 16 hours (Table 8)
Type: cell-based
Details: MCF7 cells stably expressing HiBiT tagged target proteins

SMILES | % Cyclin D1 Relative Level (10 nM) | % Cyclin D1 Relative Level (100 nM)
CC(=O)c1c(C)c2cnc(Nc3ccc(N4CCN(CC(=O)N(C)CC56CC(Nc7nc(NC(C)C)ccc7C(=O)Nc7ccc(N(C)C)nn7)(C5)C6)CC4)cn3)nc2n(C2CCCC2)c1=O [CPD-525, 2-((3-((2-(4-(6-((6-acetyl-8-cyclopentyl-5-methyl-7-oxo-7,8-dihydropyrido[2,3-d]pyrimidin-2-yl)amino)pyridin-3-yl)piperazin-1-yl)-N-methylacetamido)methyl)bicyclo[1.1.1]pentan-1-yl)amino)-N-(6-(dimethylamino)pyridazin-3-yl)-6-(isopropylamino)nicotinamide] | B (55%< Relative protein level ≤85%) | –
CCc1ccc(C(=O)Nc2ccc(N(C)C)nn2)c(N[C@H]2CC[C@H](C(=O)N3CCC(N4CCN(c5ccc(Nc6ncc7c(C)c(C(C)=O)c(=O)n(C8CCCC8)c7n6)nc5)CC4)C3)CC2)c1 (stereo partly drawn) [CPD-526, 2-((trans-4-(3-(4-(6-((6-acetyl-8-cyclopentyl-5-methyl-7-oxo-7,8-dihydropyrido[2,3-d]pyrimidin-2-yl)amino)pyridin-3-yl)piperazin-1-yl)pyrrolidine-1-carbonyl)cyclohexyl)amino)-N-(6-(dimethylamino)pyridazin-3-yl)-4-ethylbenzamide] | B (55%< Relative protein level ≤85%) | –
CC(=O)c1c(C)c2cnc(Nc3ccc(N4CCN(C5CCN(C(=O)[C@H]6CC[C@H](Nc7cc(NC(C)C)ccc7C(=O)Nc7ccc(N(C)C)nn7)CC6)C5)CC4)cn3)nc2n(C2CCCC2)c1=O (stereo partly drawn) [CPD-527, 2-((trans-4-(3-(4-(6-((6-acetyl-8-cyclopentyl-5-methyl-7-oxo-7,8-dihydropyrido[2,3-d]pyrimidin-2-yl)amino)pyridin-3-yl)piperazin-1-yl)pyrrolidine-1-carbonyl)cyclohexyl)amino)-N-(6-(dimethylamino)pyridazin-3-yl)-4-(isopropylamino)benzamide] | B (55%< Relative protein level ≤85%) | –
CC(=O)c1c(C)c2cnc(Nc3ccc(N4CCN(C5CCN(C(=O)[C@H]6CC[C@H](Nc7cc(C(C)C)ccc7C(=O)Nc7ccc(N(C)C)nn7)CC6)C5)CC4)cn3)nc2n(C2CCCC2)c1=O (stereo partly drawn) [CPD-528, 2-((trans-4-(3-(4-(6-((6-acetyl-8-cyclopentyl-5-methyl-7-oxo-7,8-dihydropyrido[2,3-d]pyrimidin-2-yl)amino)pyridin-3-yl)piperazin-1-yl)pyrrolidine-1-carbonyl)cyclohexyl)amino)-N-(6-(dimethylamino)pyridazin-3-yl)-4-isopropylbenzamide] | B (55%< Relative protein level ≤85%) | –
CC(=O)c1c(C)c2cnc(Nc3ccc(N4CCC5(CCN(CC(=O)N6CC7(CC(Nc8nc(NC(C)C)ccc8C(=O)Nc8cc9n(n8)CCC9)C7)C6)C5)C4)cn3)nc2n(C2CCCC2)c1=O (centres unmarked) [CPD-529, 2-((2-(2-(7-(6-((6-acetyl-8-cyclopentyl-5-methyl-7-oxo-7,8-dihydropyrido[2,3-d]pyrimidin-2-yl)amino)pyridin-3-yl)-2,7-diazaspiro[4.4]nonan-2-yl)acetyl)-2-azaspiro[3.3]heptan-6-yl)amino)-N-(5,6-dihydro-4H-pyrrolo[1,2-b]pyrazol-2-yl)-6-(isopropylamino)nicotinamide] | A (Relative protein level ≤55%) | A (Relative protein level ≤55%)
CC(=O)c1c(C)c2cnc(Nc3ccc(CN4CCN(CC(=O)N5CCC(Nc6nc(NC(C)C)ccc6C(=O)Nc6cc7n(n6)CCC7)CC5)CC4)cn3)nc2n(C2CCCC2)c1=O [CPD-530, 2-((1-(2-(4-((6-((6-acetyl-8-cyclopentyl-5-methyl-7-oxo-7,8-dihydropyrido[2,3-d]pyrimidin-2-yl)amino)pyridin-3-yl)methyl)piperazin-1-yl)acetyl)piperidin-4-yl)amino)-N-(5,6-dihydro-4H-pyrrolo[1,2-b]pyrazol-2-yl)-6-(isopropylamino)nicotinamide] | B (55%< Relative protein level ≤85%) | –
[2H]C([2H])([2H])Nc1ccc(C(=O)Nc2cccc(OC)n2)c(NC2CC3(C2)CN(C(=O)CC(N2CCN(c4ccc(Nc5ncc6c(C)c(C(C)=O)c(=O)n(C7CCCC7)c6n5)nc4)CC2)C(F)(F)F)C3)n1 (centres unmarked) [CPD-531, 2-((2-(3-(4-(6-((6-acetyl-8-cyclopentyl-5-methyl-7-oxo-7,8-dihydropyrido[2,3-d]pyrimidin-2-yl)amino)pyridin-3-yl)piperazin-1-yl)-4,4,4-trifluorobutanoyl)-2-azaspiro[3.3]heptan-6-yl)amino)-N-(6-methoxypyridin-2-yl)-6-((methyl-d3)amino)nicotinamide] | A (Relative protein level ≤55%) | A (Relative protein level ≤55%)
COc1cccc(NC(=O)c2ccc(NC(C)C)nc2NC2CC3(C2)CN(C(=O)CN2CCC4(CCN(c5ccc(Nc6ncc7c(C)c(C(C)=O)c(=O)n(C8CCCC8)c7n6)nc5)C4)C2)C3)n1 (centres unmarked) [CPD-532, 2-((2-(2-(7-(6-((6-acetyl-8-cyclopentyl-5-methyl-7-oxo-7,8-dihydropyrido[2,3-d]pyrimidin-2-yl)amino)pyridin-3-yl)-2,7-diazaspiro[4.4]nonan-2-yl)acetyl)-2-azaspiro[3.3]heptan-6-yl)amino)-6-(isopropylamino)-N-(6-methoxypyridin-2-yl)nicotinamide] | A (Relative protein level ≤55%) | A (Relative protein level ≤55%)
COc1cccc(NC(=O)c2ccc(NC(C)C)nc2NC2CCN(C(=O)CN3CCN(Cc4ccc(Nc5ncc6c(C)c(C(C)=O)c(=O)n(C7CCCC7)c6n5)nc4)CC3)CC2)n1 [CPD-533] | A (Relative protein level ≤55%) | A (Relative protein level ≤55%)
CC(=O)c1c(C)c2cnc(Nc3ccc(N4CCN(C5CCN(C(=O)C67CC(Nc8nc(NC(C)C)ccc8C(=O)Nc8ccc(N(C)C)nn8)(C6)C7)C5)CC4)cn3)nc2n(C2CCCC2)c1=O (centres unmarked) [CPD-534, 2-((3-(3-(4-(6-((6-acetyl-8-cyclopentyl-5-methyl-7-oxo-7,8-dihydropyrido[2,3-d]pyrimidin-2-yl)amino)pyridin-3-yl)piperazin-1-yl)pyrrolidine-1-carbonyl)bicyclo[1.1.1]pentan-1-yl)amino)-N-(6-(dimethylamino)pyridazin-3-yl)-6-(isopropylamino)nicotinamide] | A (Relative protein level ≤55%) | A (Relative protein level ≤55%)
CC(C)Nc1ccc(C(=O)Nc2ccc(N(C)C)nn2)c(NC2CCC(C(=O)N3CCC(N4CCN(c5ccc(Nc6ncc7ccc(=O)n(C8CCCC8)c7n6)nc5)CC4)C3)CC2)n1 (centres unmarked) [CPD-535, 2-((4-(3-(4-(6-((8-cyclopentyl-7-oxo-7,8-dihydropyrido[2,3-d]pyrimidin-2-yl)amino)pyridin-3-yl)piperazin-1-yl)pyrrolidine-1-carbonyl)cyclohexyl)amino)-N-(6-(dimethylamino)pyridazin-3-yl)-6-(isopropylamino)nicotinamide] | B (55%< Relative protein level ≤85%) | –
COC1(C(=O)N2CCC(N3CCN(c4ccc(Nc5ncc6c(C)c(C(C)=O)c(=O)n(C7CCCC7)c6n5)nc4)CC3)C2)CCC(Nc2nc(NC(C)C)ccc2C(=O)Nc2ccc(N(C)C)nn2)CC1 (centres unmarked) [CPD-536, 2-((4-(3-(4-(6-((6-acetyl-8-cyclopentyl-5-methyl-7-oxo-7,8-dihydropyrido[2,3-d]pyrimidin-2-yl)amino)pyridin-3-yl)piperazin-1-yl)pyrrolidine-1-carbonyl)-4-methoxycyclohexyl)amino)-N-(6-(dimethylamino)pyridazin-3-yl)-6-(isopropylamino)nicotinamide] | A (Relative protein level ≤55%) | A (Relative protein level ≤55%)
CC(=O)c1c(C)c2cnc(Nc3ccc(N4CCN(C5CCN(C(=O)CC67CC(Nc8nc(NC(C)C)ccc8C(=O)Nc8ccc(N(C)C)nn8)(C6)C7)C5)CC4)cn3)nc2n(C2CCCC2)c1=O (centres unmarked) [CPD-537, 2-((3-(2-(3-(4-(6-((6-acetyl-8-cyclopentyl-5-methyl-7-oxo-7,8-dihydropyrido[2,3-d]pyrimidin-2-yl)amino)pyridin-3-yl)piperazin-1-yl)pyrrolidin-1-yl)-2-oxoethyl)bicyclo[1.1.1]pentan-1-yl)amino)-N-(6-(dimethylamino)pyridazin-3-yl)-6-(isopropylamino)nicotinamide] | A (Relative protein level ≤55%) | A (Relative protein level ≤55%)
CC(=O)c1c(C)c2cnc(Nc3ccc(CN4CCN(C(=O)CN5CC6(CC(Nc7nc(NC(C)C)ccc7C(=O)Nc7ccc(N(C)C)nn7)C6)C5)CC4)cn3)nc2n(C2CCCC2)c1=O [CPD-538, 2-((2-(2-(4-((6-((6-acetyl-8-cyclopentyl-5-methyl-7-oxo-7,8-dihydropyrido[2,3-d]pyrimidin-2-yl)amino)pyridin-3-yl)methyl)piperazin-1-yl)-2-oxoethyl)-2-azaspiro[3.3]heptan-6-yl)amnion)-N-(6-(dimethylamino)pyridazin-3-yl)-6-(isopropylamino)nicotinamide] | B (55%< Relative protein level ≤85%) | –
CC(=O)c1c(C)c2cnc(Nc3ccc(CN4CCN(C(=O)CN5CCC(Nc6nc(NC(C)C)ccc6C(=O)Nc6ccc(N(C)C)nn6)CC5)CC4)cn3)nc2n(C2CCCC2)c1=O [CPD-541, 2-((1-(2-(4-((6-((6-acetyl-8-cyclopentyl-5-methyl-7-oxo-7,8-dihydropyrido[2,3-d]pyrimidin-2-yl)amino)pyridin-3-yl)methyl)piperazin-1-yl)-2-oxoethyl)piperidin-4-yl)amino)-N-(6-(dimethylamino)pyridazin-3-yl)-6-(isopropylamino)nicotinamide] | B (55%< Relative protein level ≤85%) | –
CC(=O)c1c(C)c2cnc(Nc3ccc(N4CCC(N5CCC[C@H]5C(=O)NCC5CC(Nc6nc(NC(C)C)ccc6C(=O)Nc6ccc(N(C)C)nn6)C5)CC4)cn3)nc2n(C2CCCC2)c1=O (stereo partly drawn) [CPD-542, (S)-2-((3-((1-(1-(6-((6-acetyl-8-cyclopentyl-5-methyl-7-oxo-7,8-dihydropyrido[2,3-d]pyrimidin-2-yl)amino)pyridin-3-yl)piperidin-4-yl)pyrrolidine-2-carboxamido)methyl)cyclobutyl)amino)-N-(6-(dimethylamino)pyridazin-3-yl)-6-(isopropylamino)nicotinamide] | C (Relative protein level >85%) | –

From patent publication US20260297081A1, “COMPOUNDS AND METHODS OF TREATING CANCERS” (Cullgen Inc., priority 2023, published 2026)
